In PubChem BioAssay AID1845212 (Molecular Pharmacology Branch, DTP, NCI, 2023):
Some entries of the source have several records that differ or are many. The other results are left out here. An entry can have further records. Values given together are repeated measurements across runs, samples, wells, individuals or studies. Marks such as (2×) give the number of equal values in this list. Marks such as [2022-09] give the month of the run.

Test system: NCI-H719 tumor spheroids, viability
Assay: Anticancer human tumor NCI-H719 cell line growth inhibition;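 also: spheroids exposed to compounds for seven days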;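 as to viability, T/C: percent viability relative to DMSO vehicle control as 100%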
Settings: spheroids with HUVEC and MSC; for viability, T/C: stronger effect = lower value
Source text: Multicellular complex tumor spheroid response to DNA repair inhibitors in combination with DNA-damaging drugs
This study explores the anticancer activities of DNA-damaging drugs and inhibitors of DNA damage repair, both as single agents and in combinations. Complex tumor spheroids comprised of malignant cells, endothelial cells and mesenchymal stem cells served as an in vitro model for human solid tumors. This model system incorporates physiologically relevant features and patient-derived or established malignant cell lines with clinically relevant genetic alterations from many tumor types. Twenty-six patient-derived or established malignant cell lines were evaluated representing sarcoma, melanoma, small cell lung cancer (SCLC), non-small cell lung cancer (NSCLC), as well as bladder, ovarian and pancreatic cancers. The concentration ranges selected for each drug and investigational agent were based upon clinically achievable concentrations if the clinical Cmax of the agent was known.
Compounds. The drugs and compounds olaparib (NSC753686), talazoparib (NSC767125), berzosertib (NSC777718), elimusertib (NSC800525), nedisertib (NSC802822), VX-984 (NSC792969), AZD-1390 (NSC803789), temozolomide (NSC362856), topotecan (NSC609699), trabectedin (NSC813783), staurosporine (NSC755774), and gemcitabine (NSC613327) were obtained from the National Cancer Institute (NCI) Developmental Therapeutics Program Chemical Repository. The FDA-approved anticancer drug set is available from the Developmental Therapeutics Program at https://dtp.cancer.gov/organization/dscb/obtaining/available_plates.htm. […] The stock solutions were prepared in dimethyl sulfoxide (DMSO, Sigma-Aldrich, St. Louis, MO, cat. D2650) at 400-fold the tested concentration and stored at -70 degrees C. Prior to their use, the stock solutions were diluted in fresh medium and the final DMSO concentration in the assay was 0.25% (v/v). All drugs and investigational agents were tested over a range starting from a high concentration at or near the clinical Cmax and decreasing in half-log increments. If the clinical Cmax for an agent had not been determined, the highest concentration tested was 10 microM.
Cell Lines. The patient-derived cancer cell (PDC) lines: 156681-154-R-J1-PDC, 283228-195-R-J1-PDC, 287954-098-R-J1-PDC, 292921-168-R-J2-PDC, 349418-098-R-PDC, 425362-245-T-J1-PDC, 556581-035-R-J1-PDC, and BL0293-F563-PDC were received from the NCI Patient-Derived Models Repository (PDMR, https://pdmr.cancer.gov). The established cell lines HS-SY-2 (RRID:CVCL_8719), MPNST, and SYO-1 (RRID:CVCL_7146) were obtained from the Sloan Kettering Institute. The alveolar soft parts sarcoma cell line ASPS-1 (RRID:CVCL_S738) was established at the NCI and grown from internal seed stocks. The following established cell lines were purchased from the American Type Culture Collection (ATCC, Manassas, VA): G-401 (ATCC, cat. CRL-1441, RRID:CVCL_0270), SW982 (ATCC, cat. HTB-93, RRID:CVCL_1734), VA-ES-BJ (ATCC, cat. CRL-2138, RRID:CVCL_1785), NCI-H719 (ATCC, cat. CRL-5837, RRID:CVCL_1582), NCI-H196 (ATCC, cat. CRL-5823, RRID:CVCL_1509), NCI-H841 (ATCC, cat. CRL-5845, RRID:CVCL_1595), NCI-H1618 (ATCC, cat. CRL-5879, RRID:CVCL_1480), NCI-H1876 (ATCC, cat. CRL-5902, RRID:CVCL_1503), DMS 114 (ATCC, cat. CRL-2066; RRID:CVCL_1174), NCI-H211 (ATCC, cat. CRL-5824; RRID:CVCL_1529), and SW 1271 (ATCC, cat. CRL-2177, RRID:CVCL_1716). The small cell lung cancer cell line COR-L88 was purchased from Sigma-Aldrich (cat. 92031917-1VL, RRID:CVCL_1141). The non-small cell lung cancer cell lines NCI-H226 (RRID:CVCL_1544) and NCI-H322M (RRID:CVCL_1557) were established at the NCI and grown from internal seed stocks. Pooled donor human umbilical vein endothelial cells (HUVEC, Lonza, cat. CC-2519) and human mesenchymal stem cells (hMSC, Lonza, cat. PT-2501) were purchased from Lonza (Walkersville, MD).
Cell Culture. All cells were maintained in an incubator at 37 degrees C and 5% CO2 with 95% humidity. […]

Cn1nnc2c(C(N)=O)ncn2c1=O
viability, T/C (compound alone 1 µM): 73.5, 69, 48.1, 93.3, 94.7, 91.5, 81.9, 96.9, 86.1, 101%
viability, T/C (compound alone 3.16 µM): 102 (2×), 100, 60.6, 96.2, 98.3, 97.9, 99.6, 103, 99%
viability, T/C (compound alone 10 µM): 94.5, 106 (2×), 101, 96.7, 104, 96.6, 47.5, 103, 97.9%
viability, T/C (compound alone 31.6 µM): 57.9, 83.1, 94.9, 107, 101 (2×), 99.8, 5.75, 110, 106%
viability, T/C (compound alone 100 µM): 68, 88.1, 64.3, 92.9, 92.4, 87.1, 5.41, 90.4, 87.5, 97.3%
IC50 (compound alone, run of 11/07/2019): < 1 µM, > 100 µM, 9.38 µM

O=C(c1cc(Cc2n[nH]c(=O)c3ccccc23)ccc1F)N1CCN(C(=O)C2CC2)CC1
viability, T/C (compound alone 30 µM): 48.6%, 6.53% [2019-11] and 12.1% [2019-12]

COc1cc2c(cc1O)CCNC21CSC2c3c(OC(C)=O)c(C)c4c(c3C(COC1=O)N1C(O)C3Cc5cc(C)c(OC)c(O)c5C(C21)N3C)OCO4 (centres undefined)
viability, T/C (compound 30 pM): 89.2, 74.8, 99.7, 91.7, 72.3, 90.5, 70.9, 93.8, 92.1, 94%

CNCc1ccc(-c2cc(-c3nc(-c4ccc(S(=O)(=O)C(C)C)cc4)cnc3N)on2)cc1
viability, T/C (compound alone 3 µM): 26.3%, 0.2% [2019-11] and 1.38% [2019-12]
